Measurements as given in PubChem BioAssay AID686979 (National Center for Advancing Translational Sciences (NCATS), 2013).
Several values for one entry are separate records, joined by “and”; a condition that tells them apart may be missing. Equal entries are not always repeated. Out of some 420,000 compounds screened, about 50,000 (12%) were called active. This list was built around the results that the source calls inconclusive (neither active nor inactive); the mix of calls is not that of the screen. Calls come from the whole dose curve; as a rule, active = well fitted inhibition curve with a large enough effect; inconclusive = small, poorly fitted or top-dose-only effect; inactive = flat fitted curve, though single readings scatter. Where the call is inconclusive, the potency comes from a doubtful curve fit.

Assay: qHTS for Inhibitors of human tyrosyl-DNA phosphodiesterase 1 (TDP1): qHTS in cells in presence of CPT; note: nearly all actives have a fitted effect of over 55% in size
Settings: chicken DT40 Tdp1-/-;hTDP1 cells + 20 nM CPT, ATP luminescence, 48 h; activity change, negative = growth inhibition: at 46.2 µM (top of the series) unless noted
Summary of the method: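 Cell growth measured by CellTiter-Glo luminescence after a minimum 48 h, 37 C compound exposure with 20 nM CPT in Tdp1-knockout DT40 cells stably expressing hTDP1, seeded 400/well; qHTS titration format.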
% is set by controls: 0 for no effect and ±100 for the full control effect; potency is the fitted concentration of half-maximal effect; tags give direction and shape of the fitted curve.

SMILES | Potency | activity change, negative = growth inhibition
CCOc1ccc(-c2cc(C)[n+](CCN(CC)CC)c(-c3ccc(OCC)cc3)c2)cc1 | active: 0.206 µM | 
O=C(Nc1cccc(Cl)c1)c1c(O)c2c(n(Cc3ccco3)c1=O)CCCC2 | inconclusive: 29.1 µM [inhibitor, single point] | 
CC(=O)O[C@@H]1[C@H]2CC[C@@H]3[C@]1(C[C@@H](OC(C)=O)[C@@]1(O)C([C@@H]4O[C@@H]4C1(C)C)[C@]3(C)O)C[C@@]2(C)O (stereo partly drawn) |  | inactive: 0.832%
Cc1ccc(C(=O)C2CN(C)CC2C(=O)c2ccc(C)cc2)cc1 (stereo not drawn) |  | inactive: -8.39%
CC(N=Cc1c(O)[nH]c(=O)[nH]c1=O)c1ccccc1 (stereo not drawn) |  | inactive: -13%
c1ccc(CNc2c3c(nc4ccccc24)CCC3)cc1 | inconclusive: 29.1 µM [inhibitor, single point] | 
CCNc1nc2[nH]c(=O)c3c(c2s1)OC(N)=C(C#N)C3c1cccs1 (stereo not drawn) |  | inactive: -26.8%
COc1ccc(C(c2nnnn2-c2c(C)cccc2C)N2CCC(n3c(=O)[nH]c4ccccc43)CC2)cc1 (stereo not drawn) | active: 8.2 µM | 
O=[N+]([O-])c1ccc(OP(=O)(O)Oc2ccc([N+](=O)[O-])cc2)cc1 |  | inactive: 0.102%
COC(=O)[C@@H]1N=C(c2ccc(OC)cc2)O[C@]12C(=O)N(Cc1ccc(OC)cc1)c1ccccc12 | active: 18.4 µM | 
CCn1ccnc1CN1CCCC(C(=O)c2cc(F)ccc2OC)C1 (stereo not drawn) | inconclusive: 16.4 µM [inhibitor, single point] | 
O=C(c1ccc(N2CC3CC(C2)c2cccc(=O)n2C3)c([N+](=O)[O-])c1)N1CCCCC1 (stereo not drawn) |  | inactive: 3.51%
CNCC(=O)c1ccccc1 | inconclusive: 16.4 µM [inhibitor, single point] | 
CS(=O)(=O)c1ccc([C@@H](O)[C@@H](CF)NC(=O)C(Cl)Cl)cc1 | active: 2.86 µM and active: 4.11 µM | 
CN1C(=O)C(=Cc2ccccc2OCc2ccc(C(=O)O)cc2)C(=O)N(C)C1=O |  | inactive: 7.58%
O=C(O)C12C3CCCC1C32c1ccccc1 (stereo not drawn) | inconclusive: 29.1 µM [inhibitor, single point] | 
CCCCn1c(O)c(C(CC)=Nc2ccc(OC)cc2OC)c(=O)[nH]c1=O | inconclusive: 23.1 µM [inhibitor, single point] | 
Oc1ccc2c3c1O[C@H]1c4oc5ccccc5c4C[C@@]4(O)[C@@H](C2)N(CC2CC2)CC[C@]314 | inconclusive: 29.1 µM [inhibitor, single point] | 
COC(=O)C1=C(c2ccc(-c3ccccc3)c(F)c2)C[C@@H]2CC[C@H]1N2C(=O)NCCCOC(C)C | active: 14.6 µM | 
Cc1nc2ccccc2c(=O)n1-c1ccc(Cl)cc1[N+](=O)[O-] | inconclusive: 23.1 µM [inhibitor, single point] | 
Cc1nn(Cc2ccccc2)c(Cl)c1C(=O)Nc1ccc(OC(F)(F)F)cc1 | inconclusive: 7.31 µM [inhibitor, partial curve] | 
OCC#CC[N+]1(CC#Cc2ccccc2)CCCC1 |  | inactive: -6.84%
COC(=O)C1=C(c2ccc(F)cc2OCc2ccccc2)C[C@@H]2CC[C@H]1N2C(=O)NCc1cccc(F)c1 | inconclusive: 29.1 µM [inhibitor, single point] | 
COc1ccc(-c2cc(=NCC(=O)O)c3ccccc3o2)cc1 | inconclusive: 29.1 µM [inhibitor, single point] | 

SMILES | Potency | activity change, negative = growth inhibition
CCc1ccc(-n2nc(C)c3c2NC(=O)CSC3c2ccccc2C)cc1 (stereo not drawn) | inconclusive: 16.4 µM [inhibitor, single point] | 
CC12CCC(=O)C=C1CCC1C2CCC2(C)C(O)CCC12 (stereo not drawn) | active: 23.1 µM | 
COC(=O)C1(C(=O)OC)C[C@H](c2ccccc2)N(Cc2ccccc2OC)[C@@H]1c1ccccc1 | inconclusive: 29.1 µM [inhibitor, single point] | 
CCOc1ccccc1Oc1coc2cc(OC(=O)N(C)C)ccc2c1=O | inconclusive: 29.1 µM [inhibitor, single point] | 
CCC1([N+](=O)[O-])COP(=O)(NCc2cccnc2)OC1 (stereo not drawn) |  | inactive: 1.28%
[N-]=[N+]=NCCN1CCC(O)CCC1=O (stereo not drawn) | inactive | 
CCOC(=O)[C@]12Cc3ccc(C)cc3[C@H]1N(C1CCCCC1)C(=O)c1ccccc12 | active: 2.59 µM | 
COc1ccccc1N1CCN(Cc2ccc(Br)cc2)CC1 | inconclusive: 29.1 µM [inhibitor, single point] | 
Cn1cc(/C=C(\C(=O)O)C(C(=O)O)=C2CCCCC2)c2ccccc21 | active: 23.1 µM | 
CN1C(=O)C(=Cc2c(OCc3cnc(Cl)s3)ccc3ccccc23)C(=O)N(C)C1=O | inconclusive: 29.1 µM [inhibitor, single point] | 
CCCCCCCCCCCCn1ccc(=N)cc1 | active: 0.461 µM | 
CSc1ccc(C(=O)C2CCCN(CCCn3cccn3)C2)cc1 (stereo not drawn) | inconclusive: 25.9 µM [inhibitor, single point] | 
COC(=O)C1=C(c2ccc(OCc3ccccc3)cc2)C[C@@H]2CC[C@H]1N2C(=O)NC1CCN(Cc2ccccc2)CC1 | active: 8.2 µM | 
COc1cc2c(ccc3c4cc(OC)c(OC)cc4c[n+](C)c23)cc1O | active: 1.3 µM | 
CC1(C)CC(=O)C2=C(C1)OC(N)=C([N+](=O)[O-])C2c1ccc(C#N)s1 (stereo not drawn) | active: 20.6 µM | 
Oc1ccc(Cl)cc1 | inactive | 
CC(C)N(CC#CCC1(O)c2ccccc2-c2ccccc21)C(C)C |  | inactive: -13.8%
Cc1cccc(-n2c(O)c(C)c(=O)[nH]c2=S)c1 |  | inactive: -7.61%
O=C1NC(=O)C2(Cc3ccccc3N3CCCC32)C(=O)N1c1ccc(Cl)cc1 (stereo not drawn) | inconclusive: 23.1 µM [inhibitor, single point] | 
COc1ccccc1N1CCN(Cc2cnc(-c3ccccc3)[nH]2)CC1 |  | inactive: -23%
COc1ccc2nc(NC3=NCCN3)sc2c1 |  | inactive: 3.67%
CN1CCN(Cc2cc(C(C)(C)C)c(O)c(C(C)(C)C)c2)CC1 |  | inconclusive: -32.6% [inhibitor]
O=P(CN1CCN(c2ccccc2)CC1)(N1CCCCC1)N1CCCCC1 | inconclusive: 18.4 µM [inhibitor, partial curve, poor fit] | 
CC(C)c1c(CN(C)C(C)Cc2ccccc2)n(C)n(-c2ccccc2)c1=O (stereo not drawn) | inactive and inconclusive: 29.1 µM [inhibitor, single point] | 
